# Data reported in PMC4336329 (PLoS ONE, 2015).
# The whole screen tested about 310,000 compounds, of which about 14,000 (4.5%) showed an effect of 50% or more. The effect is printed as a negative number. The list shows a part of the results.
# Molecular target: human ether-à-go-go-related gene (hERG) potassium channel (human, UniProt Q12809)
# Assay: primary screen, population patch clamp on CHO cells stably expressing hERG
# 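Further: peak tail current of the secondary pulse compared with the same well before compound.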
# Sequence of human ether-à-go-go-related gene (hERG) potassium channel (Q12809 whole entry, looked up): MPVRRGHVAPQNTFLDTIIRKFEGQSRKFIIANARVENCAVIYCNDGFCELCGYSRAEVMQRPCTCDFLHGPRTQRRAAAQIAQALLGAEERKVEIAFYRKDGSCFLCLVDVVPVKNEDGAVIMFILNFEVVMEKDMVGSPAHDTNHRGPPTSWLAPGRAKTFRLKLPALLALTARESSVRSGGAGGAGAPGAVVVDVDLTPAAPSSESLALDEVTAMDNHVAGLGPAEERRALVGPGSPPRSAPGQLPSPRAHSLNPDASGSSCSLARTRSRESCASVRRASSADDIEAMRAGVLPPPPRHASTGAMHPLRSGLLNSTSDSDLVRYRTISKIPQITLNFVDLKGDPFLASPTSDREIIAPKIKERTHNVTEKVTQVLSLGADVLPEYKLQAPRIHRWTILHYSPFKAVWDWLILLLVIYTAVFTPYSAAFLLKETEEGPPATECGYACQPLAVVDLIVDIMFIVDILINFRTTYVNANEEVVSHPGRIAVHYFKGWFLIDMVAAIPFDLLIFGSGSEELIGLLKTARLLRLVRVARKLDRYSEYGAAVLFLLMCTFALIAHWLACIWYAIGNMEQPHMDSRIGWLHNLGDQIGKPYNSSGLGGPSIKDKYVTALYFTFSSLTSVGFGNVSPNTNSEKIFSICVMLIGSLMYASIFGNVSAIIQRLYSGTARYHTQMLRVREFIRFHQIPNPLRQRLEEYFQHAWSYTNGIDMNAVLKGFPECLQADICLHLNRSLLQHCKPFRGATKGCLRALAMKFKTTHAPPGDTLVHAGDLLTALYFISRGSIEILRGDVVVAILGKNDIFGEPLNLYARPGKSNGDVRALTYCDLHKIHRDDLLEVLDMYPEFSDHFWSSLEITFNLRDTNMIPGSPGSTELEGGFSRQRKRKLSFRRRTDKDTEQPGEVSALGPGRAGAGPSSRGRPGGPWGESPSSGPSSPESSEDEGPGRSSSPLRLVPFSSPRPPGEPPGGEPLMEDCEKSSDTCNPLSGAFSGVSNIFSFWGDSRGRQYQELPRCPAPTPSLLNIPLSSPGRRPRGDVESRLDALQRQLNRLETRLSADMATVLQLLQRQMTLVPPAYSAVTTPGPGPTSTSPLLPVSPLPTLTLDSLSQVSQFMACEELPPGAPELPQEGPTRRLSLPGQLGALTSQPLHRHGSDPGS
row,Structure (SMILES),"hERG current change (%, negative = inhibition) at 10uM [%]"
1,O=C(NCc1ccccn1)c1ccc(Cl)c(S(=O)(=O)N2CCOCC2)c1,-4.89
2,CSc1nsc(SCC(=O)Nc2ccccc2F)n1,4.23
3,COc1cccc2c(=O)n(CC(=O)NC3CCCCC3)ccc12,5.95
4,O=C(O)CCn1[nH]c(=O)ccc1=O,18.1
5,CCCC(=O)N1CCC(O)(c2cccc(F)c2)CC1,10.7
6,c1ccc2c(NCCc3c[nH]c4ccccc34)c3ccccc3nc2c1,-74.7
7,CC(=O)COC(=O)C1CC(=O)N(c2ccc(C)c(C)c2)C1 (stereo not drawn),9.67
8,CCN(CC)CC(=O)Nc1c(C#N)cnn1-c1ccccc1,18.7
9,CCN(CC)c1ccc(NC(=O)COC(=O)C23CCC(=O)N2c2ccccc2S3)cc1 (stereo not drawn),-2.01
10,O=C(NCc1ccccc1)C(Cc1ccccc1)NS(=O)(=O)c1cccc2nsnc12 (stereo not drawn),-18.5
11,COc1ccc(Nc2nc(NCCO)nc(OC)n2)cc1,11.1
12,OCCNc1ncnc2c1c(-c1ccccc1)c(-c1ccccc1)n2Cc1ccco1,-44.9
13,Cn1ncc2c(NNC(=O)Cc3cccc4ccccc34)ncnc21,-10.7
14,CCc1cc(Cn2nc(-c3ccccc3)cc2C(=O)NCCOC)on1,-9.96
15,Brc1ccc2c(c1)C(C1=NCCN1)c1ccccc1CS2.O=C(O)/C=C\C(=O)O (stereo not drawn),-20.3
16,COc1ccc(C(=O)NCCS(=O)(=O)NCc2ccccc2)cc1,0.236
17,CCOC(=O)C(C(=O)Nc1ccccc1C)C1CCCCC1 (stereo not drawn),25.8
18,CCn1nc(C)c(NC(=O)/C=C/c2cnn(C)c2C)c1C,-4.38
19,CCOC(=O)Cn1cc(Cl)cc(C(=O)Nc2ccccc2)c1=O,-19.2
20,Cc1cc(C(=O)NC(C)C2CCCO2)c(C)o1 (stereo not drawn),17.7
21,O=C1CC(c2ccc(O)c(O)c2)Oc2c1ccc(O)c2O (stereo not drawn),2.09
22,O=C(NNS(=O)(=O)c1ccccc1)c1ccc(F)cc1,12.3
23,O=[N+]([O-])c1cccc(-c2ccc(C(=S)N3CCN(c4ccc(F)cc4)CC3)o2)c1,2.61

row,Structure (SMILES),"hERG current change (%, negative = inhibition) at 10uM [%]"
1,COc1ccc(CNC(=O)Cn2nnc(-c3ccc(NC(=O)C4CCCCC4)cc3)n2)cc1,14
2,COC(=O)COc1ccc(S(=O)(=O)NCC2CCCO2)cc1Cl (stereo not drawn),-11.6
3,O=C(Cc1ccccc1)Nc1nc(-c2cccc([N+](=O)[O-])c2)cs1,9.32
4,CNC(=O)C1CC(=O)N(CCc2ccc(C)cc2)C1 (stereo not drawn),15.5
5,N=c1c2c(-c3ccccc3)c(-c3ccccc3)n(Cc3ccco3)c2ncn1CCO,-71
6,COCCCN(CC(=O)NCc1ccccc1)S(=O)(=O)c1ccc(C)cc1,-21.9
7,O=C(O)Cn1c(=S)sc2ccccc21,11.4
8,Cc1nc2ccc(NC(=O)NC(=O)c3c(Cl)cccc3Cl)cc2o1,10.6
9,CC(C)OC(=O)COc1ccc(-c2ccccc2)cc1,7.92
10,CCN(CCNC(=O)CCCn1nc(C)n2c(cc3sccc32)c1=O)c1ccccc1,-36.5
11,Cc1ccc(NC(=O)C2CC(Cl)=CCC2C(=O)O)c([N+](=O)[O-])c1 (stereo not drawn),-0.391
12,CCOC(=O)c1cc(=O)c2ccc(OCC(=O)Nc3ccc(F)cc3)cc2o1,4.23
13,Cc1ccc(S(=O)(=O)NCCC(=O)OCC(=O)N2CCCC2=O)cc1,-12.2
14,O=[N+]([O-])c1cc(C(F)(F)F)cc([N+](=O)[O-])c1NCCCNc1ccc([N+](=O)[O-])c2cccnc12,14.4
15,CCn1c(=O)cc(OCC(=O)Nc2ccc(OC)c(OC)c2)c2ccccc21,-6.27
16,CCOCCn1c(CN2CCCCC2C)nc2c1c(=O)n(C)c(=O)n2C (stereo not drawn),1.44
17,Cc1ccc(SC(C)C(=O)O/N=C(\N)c2ccncc2)cc1 (stereo not drawn),8.12
18,COc1ccccc1CNC(=O)CSc1cc(=O)n(C)c2ccccc12,-2.22
19,CNCc1sccc1C.Cl,14.3
20,Cc1nn(C2CCS(=O)(=O)C2)c(C)c1C=O (stereo not drawn),1.67
21,C#CCn1c(=O)c2c(ncn2C)n(C)c1=O,11
22,N#CCCN(C(=O)COC(=O)CCc1c[nH]c2ccccc12)c1ccccc1,4.67
